Results published in the supplement of paper PMC8728848.
The list shows a part of the results.

Columns and labels:
Experiment in all cases: glycan array binding signal (z-score within array); higher = stronger binding
Conditions in all cases: glycan notation: IUPAC condensed, linker removed
[1] = target: Gal(b1-3)Gal
Procedure, shortened: (§1)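 Negative Z-scores can be read as non-binding. The Z-score is calculated within each array and then averaged across arrays of one protein sequence at different concentrations or buffers and across linkers. Arrays, 3228 in all, were curated from the Consortium for Functional Glycomics database and kept only where the protein sequence was available.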

[2] = target: Gal(b1-3)GalNAc
Procedure, shortened: as §1

[3] = target: Gal(b1-3)GalNAc(b1-3)Gal(a1-4)Gal(b1-4)Glc
Procedure, shortened: as §1

[4] = target: Gal(b1-3)GalNAc(b1-4)Gal(b1-4)Glc
Procedure, shortened: as §1

[5] = target: Gal(b1-3)GalNAc(b1-4)[Neu5Ac(a2-3)]Gal(b1-4)Glc
Procedure, shortened: as §1

[6] = target: Gal(b1-3)GlcNAc
Procedure, shortened: as §1

[7] = target: Gal(b1-3)GlcNAc(b1-3)Gal(b1-3)GlcNAc
Procedure, shortened: as §1

[8] = target: Gal(b1-3)GlcNAc(b1-3)Gal(b1-4)Glc
Procedure, shortened: as §1

[9] = target: Gal(b1-3)GlcNAc(b1-3)Gal(b1-4)GlcNAc
Procedure, shortened: as §1

[10] = target: Gal(b1-3)[Fuc(a1-4)]GlcNAc
Procedure, shortened: as §1

[11] = target: Gal(b1-3)[Fuc(a1-4)]GlcNAc(b1-3)Gal(b1-3)[Fuc(a1-4)]GlcNAc
Procedure, shortened: as §1

[12] = target: Gal(b1-3)[Fuc(a1-4)]GlcNAc(b1-3)Gal(b1-4)GlcNAc
Procedure, shortened: as §1

[13] = target: Gal(b1-3)[Fuc(a1-4)]GlcNAc(b1-3)Gal(b1-4)[Fuc(a1-3)]GlcNAc
Procedure, shortened: as §1

[14] = target: Gal(b1-3)[GlcNAc(b1-6)]GalNAc
Procedure, shortened: as §1

[15] = target: Gal(b1-3)[Neu5Ac(a2-6)]GalNAc
Procedure, shortened: as §1

[16] = target: Gal(b1-3)[Neu5Ac(a2-6)]GlcNAc(b1-6)Gal(b1-4)Glc
Procedure, shortened: as §1

[17] = target: Gal(b1-3)[Neu5Ac(b2-6)]GalNAc
Procedure, shortened: as §1

[18] = target: Gal(b1-4)GalNAc(a1-3)[Fuc(a1-2)]Gal(b1-4)GlcNAc
Procedure, shortened: as §1

[19] = target: Gal(b1-4)GalNAc(b1-3)[Fuc(a1-2)]Gal(b1-4)GlcNAc
Procedure, shortened: as §1

[20] = target: Gal(b1-4)Glc
Procedure, shortened: as §1

[21] = target: Gal(b1-4)Glc6S
Procedure, shortened: as §1

[22] = target: Gal(b1-4)GlcNAc
Procedure, shortened: as §1

[23] = target: Gal(b1-4)GlcNAc(b1-2)Man(a1-3)[Gal(b1-4)GlcNAc(b1-2)Man(a1-6)]Man(b1-4)GlcNAc(b1-4)GlcNAc
Procedure, shortened: as §1

[24] = target: Gal(b1-4)GlcNAc(b1-3)Gal(b1-3)GlcNAc
Procedure, shortened: as §1

[25] = target: Gal(b1-4)GlcNAc(b1-3)Gal(b1-4)Glc
Procedure, shortened: as §1

[26] = target: Gal(b1-4)GlcNAc(b1-3)Gal(b1-4)GlcNAc
Procedure, shortened: as §1

[27] = target: Gal(b1-4)GlcNAc(b1-3)Gal(b1-4)GlcNAc(b1-3)Gal(b1-4)GlcNAc
Procedure, shortened: as §1

[28] = target: Gal(b1-4)GlcNAc(b1-3)Gal(b1-4)[Fuc(a1-3)]GlcNAc(b1-3)Gal(b1-4)[Fuc(a1-3)]GlcNAc
Procedure, shortened: as §1

[29] = target: Gal(b1-4)GlcNAc(b1-3)GalNAc
Procedure, shortened: as §1

[30] = target: Gal(b1-4)GlcNAc(b1-3)[Gal(b1-4)GlcNAc(b1-6)]GalNAc
Procedure, shortened: as §1

[31] = target: Gal(b1-4)GlcNAc(b1-6)Gal(b1-4)GlcNAc(b1-6)GalNAc
Procedure, shortened: as §1

[32] = target: Gal(b1-4)GlcNAc(b1-6)GalNAc
Procedure, shortened: as §1

[33] = target: Gal(b1-4)GlcNAc(b1-6)[Gal(b1-3)]GalNAc
Procedure, shortened: as §1

[34] = target: Gal3S(b1-3)GalNAc
Procedure, shortened: as §1

[35] = target: Gal3S(b1-3)GlcNAc
Procedure, shortened: as §1

[36] = target: Gal3S(b1-3)[Fuc(a1-4)]GlcNAc
Procedure, shortened: as §1

[37] = target: Gal3S(b1-4)Glc
Procedure, shortened: as §1

[38] = target: Gal3S(b1-4)Glc6S
Procedure, shortened: as §1

[39] = target: Gal3S(b1-4)GlcNAc
Procedure, shortened: as §1

[40] = target: Gal3S(b1-4)GlcNAc6S
Procedure, shortened: as §1

[41] = target: Gal3S(b1-4)[Fuc(a1-3)]Glc
Procedure, shortened: as §1

[42] = target: Gal3S6S(b1-4)GlcNAc
Procedure, shortened: as §1

[43] = target: Gal3S6S(b1-4)GlcNAc6S
Procedure, shortened: as §1

[44] = target: Gal4S(b1-4)GlcNAc
Procedure, shortened: as §1

[45] = target: Gal4S6S(b1-4)GlcNAc
Procedure, shortened: as §1

[46] = target: Gal6S(b1-4)Glc
Procedure, shortened: as §1

[47] = target: Gal6S(b1-4)Glc6S
Procedure, shortened: as §1

[48] = target: Gal6S(b1-4)GlcNAc
Procedure, shortened: as §1

[49] = target: GalNAc(a1-3)Gal
Procedure, shortened: as §1

[50] = target: GalNAc(a1-3)GalNAc
Procedure, shortened: as §1

[51] = target: GalNAc(b1-3)Gal(a1-4)Gal(b1-4)GlcNAc
Procedure, shortened: as §1

[52] = target: GalNAc(b1-3)GalNAc
Procedure, shortened: as §1

[53] = target: GalNAc(b1-4)GlcNAc
Procedure, shortened: as §1

[54] = target: Glc(a1-4)Glc
Procedure, shortened: as §1

[55] = target: Glc(a1-6)Glc(a1-6)Glc
Procedure, shortened: as §1

[56] = target: Glc(b1-4)Glc
Procedure, shortened: as §1

[57] = target: Glc(b1-6)Glc
Procedure, shortened: as §1

[58] = target: GlcA(b1-3)Gal
Procedure, shortened: as §1

[59] = target: GlcA(b1-6)Gal
Procedure, shortened: as §1

[60] = target: GlcNAc(a1-3)Gal(b1-4)GlcNAc
Procedure, shortened: as §1

[61] = target: GlcNAc(a1-6)Gal(b1-4)GlcNAc
Procedure, shortened: as §1

[62] = target: GlcNAc(b1-2)Gal(b1-3)GalNAc
Procedure, shortened: as §1

[63] = target: GlcNAc(b1-2)Man(a1-3)[GlcNAc(b1-2)Man(a1-6)]Man(b1-4)GlcNAc(b1-4)GlcNAc
Procedure, shortened: as §1

[64] = target: GlcNAc(b1-3)Gal
Procedure, shortened: as §1

[65] = target: GlcNAc(b1-3)Gal(b1-3)GalNAc
Procedure, shortened: as §1

[66] = target: GlcNAc(b1-3)Gal(b1-4)Glc
Procedure, shortened: as §1

[67] = target: GlcNAc(b1-3)Gal(b1-4)GlcNAc
Procedure, shortened: as §1

[68] = target: GlcNAc(b1-3)Gal(b1-4)GlcNAc(b1-3)Gal(b1-4)GlcNAc
Procedure, shortened: as §1

[69] = target: GlcNAc(b1-3)GalNAc
Procedure, shortened: as §1

[70] = target: GlcNAc(b1-3)[GlcNAc(b1-6)]Gal(b1-4)GlcNAc
Procedure, shortened: as §1

[71] = target: GlcNAc(b1-3)[GlcNAc(b1-6)]GalNAc
Procedure, shortened: as §1

[72] = target: GlcNAc(b1-3)[GlcNAc(b1-6)]GlcNAc(b1-4)GlcNAc
Procedure, shortened: as §1

[73] = target: GlcNAc(b1-4)Gal(b1-4)GlcNAc
Procedure, shortened: as §1

[74] = target: GlcNAc(b1-4)GlcNAc(b1-4)GlcNAc
Procedure, shortened: as §1

[75] = target: GlcNAc(b1-4)GlcNAc(b1-4)GlcNAc(b1-4)GlcNAc(b1-4)GlcNAc
Procedure, shortened: as §1

B1: Mindin (Homo sapiens), Q9BUD6 (protein)
chain: MENPSPAAALGKALCALLLATLGAAGQPLGGESICSARALAKYSITFTGKWSQTAFPKQYPLFRPPAQWSSLLGAAHSSDYSMWRKNQYVSNGLRDFAERGEAWALMKEIEAAGEALQSVHEVFSAPAVPSGTGQTSAELEVQRRHSLVSFVVRIVPSPDWFVGVDSLDLCDGDRWREQAALDLYPYDAGTDSGFTFSSPNFATIPQDTVTEITSSSPSHPANSFYYPRLKALPPIARVTLVRLRQSPRAFIPPAPVLPSRDNEIVDSASVPETPLDCEVSLWSSWGLCGGHCGRLGTKSRTRYVRVQPANNGSPCPELEEEAECVPDNCV
glycan array binding signal (z-score) [1]: -0.294 | glycan array binding signal (z-score) [2]: -0.22 | glycan array binding signal (z-score) [3]: -0.31 | glycan array binding signal (z-score) [4]: -0.14 | glycan array binding signal (z-score) [5]: -0.024 | glycan array binding signal (z-score) [6]: 0.371 | glycan array binding signal (z-score) [7]: -0.279 | glycan array binding signal (z-score) [8]: -0.056 | glycan array binding signal (z-score) [9]: 2.01 | glycan array binding signal (z-score) [10]: -0.309 | glycan array binding signal (z-score) [11]: -0.326 | glycan array binding signal (z-score) [12]: 1.28 | glycan array binding signal (z-score) [13]: -0.156 | glycan array binding signal (z-score) [14]: -0.233 | glycan array binding signal (z-score) [15]: -0.262 | glycan array binding signal (z-score) [16]: 0.95 | glycan array binding signal (z-score) [17]: -0.189 | glycan array binding signal (z-score) [18]: 0.429 | glycan array binding signal (z-score) [19]: -0.171 | glycan array binding signal (z-score) [20]: -0.2 | glycan array binding signal (z-score) [21]: -0.055 | glycan array binding signal (z-score) [22]: 0.321 | glycan array binding signal (z-score) [23]: 1.27 | glycan array binding signal (z-score) [24]: -0.378 | glycan array binding signal (z-score) [25]: 0.918 | glycan array binding signal (z-score) [26]: 0.322 | glycan array binding signal (z-score) [27]: 0.792 | glycan array binding signal (z-score) [28]: 0.429 | glycan array binding signal (z-score) [29]: 0.959 | glycan array binding signal (z-score) [30]: 2.02 | glycan array binding signal (z-score) [31]: -0.238 | glycan array binding signal (z-score) [32]: 1.34 | glycan array binding signal (z-score) [33]: 1.01 | glycan array binding signal (z-score) [34]: -0.146 | glycan array binding signal (z-score) [35]: -0.188 | glycan array binding signal (z-score) [36]: -0.209 | glycan array binding signal (z-score) [37]: 0.224 | glycan array binding signal (z-score) [38]: -0.148 | glycan array binding signal (z-score) [39]: -0.198 | glycan array binding signal (z-score) [40]: 0.031 | glycan array binding signal (z-score) [41]: -0.28 | glycan array binding signal (z-score) [42]: -0.241 | glycan array binding signal (z-score) [43]: -0.23 | glycan array binding signal (z-score) [44]: -0.072 | glycan array binding signal (z-score) [45]: 0.061 | glycan array binding signal (z-score) [46]: 0.355 | glycan array binding signal (z-score) [47]: 0.464 | glycan array binding signal (z-score) [48]: -0.146 | glycan array binding signal (z-score) [49]: -0.154 | glycan array binding signal (z-score) [50]: -0.322 | glycan array binding signal (z-score) [51]: -0.167 | glycan array binding signal (z-score) [52]: -0.245 | glycan array binding signal (z-score) [53]: -0.065 | glycan array binding signal (z-score) [54]: -0.337 | glycan array binding signal (z-score) [55]: -0.402 | glycan array binding signal (z-score) [56]: -0.387 | glycan array binding signal (z-score) [57]: -0.355 | glycan array binding signal (z-score) [58]: -0.309 | glycan array binding signal (z-score) [59]: -0.329 | glycan array binding signal (z-score) [60]: -0.347 | glycan array binding signal (z-score) [61]: 0.607 | glycan array binding signal (z-score) [62]: -0.345 | glycan array binding signal (z-score) [63]: -0.265 | glycan array binding signal (z-score) [64]: -0.214 | glycan array binding signal (z-score) [65]: -0.282 | glycan array binding signal (z-score) [66]: -0.403 | glycan array binding signal (z-score) [67]: -0.239 | glycan array binding signal (z-score) [68]: -0.352 | glycan array binding signal (z-score) [69]: -0.31 | glycan array binding signal (z-score) [70]: -0.324 | glycan array binding signal (z-score) [71]: -0.343 | glycan array binding signal (z-score) [72]: -0.276 | glycan array binding signal (z-score) [73]: -0.307 | glycan array binding signal (z-score) [74]: -0.213 | glycan array binding signal (z-score) [75]: -0.397
